For test [1], the target named is N-6His-GSTP1 recombinant protein (human) (UniProt P09211). As to the kind of experiment: pull-down; Ni-NTA agarose beads coupled to 4 µg of recombinant N-6His GSTP1 or N-6His RCC1; 35S-labelled in vitro translated E7 proteins added; SDS-PAGE and autoradiography; only the target purified.
Test [2] deals with N-6His-RCC1 recombinant protein (regulator of chromosome condensation 1) (UniProt P18754). The description is as above.

Protein sequences, listed by entry. Tags and fused reporters are not part of them.
UniProt P09211: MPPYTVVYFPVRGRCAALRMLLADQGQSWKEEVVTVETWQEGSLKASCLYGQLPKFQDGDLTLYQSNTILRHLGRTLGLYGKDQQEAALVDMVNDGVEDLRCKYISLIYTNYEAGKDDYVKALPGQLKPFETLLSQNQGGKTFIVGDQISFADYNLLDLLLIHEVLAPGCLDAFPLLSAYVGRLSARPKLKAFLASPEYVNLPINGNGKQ
UniProt P18754: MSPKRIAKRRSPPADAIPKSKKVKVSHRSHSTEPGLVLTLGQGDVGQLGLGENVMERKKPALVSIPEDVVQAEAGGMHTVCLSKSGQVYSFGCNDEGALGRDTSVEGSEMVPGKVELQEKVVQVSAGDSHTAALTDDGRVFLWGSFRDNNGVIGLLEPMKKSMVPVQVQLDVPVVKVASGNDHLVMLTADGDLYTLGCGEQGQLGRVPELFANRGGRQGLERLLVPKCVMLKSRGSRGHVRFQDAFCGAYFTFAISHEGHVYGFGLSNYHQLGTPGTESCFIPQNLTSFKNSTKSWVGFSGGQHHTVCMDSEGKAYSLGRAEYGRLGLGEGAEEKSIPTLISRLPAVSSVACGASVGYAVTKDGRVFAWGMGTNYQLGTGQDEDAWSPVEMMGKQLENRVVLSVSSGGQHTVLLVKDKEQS

The text below walks through data of publication PMC2758704.

Results are given in words; binding and its absence hold for the method and conditions named. Binding seen in cells or lysates may run through a third protein. Some entries that bind do so weakly or less than the wild type.

B1: radiolabeled IVT HPV-33 E7 (protein, UniProt P06429 1-97)
chain: MRGHKPTLKEYVLDLYPEPTDLYCYEQLSDSSDEDEGLDRPDGQAQPATADYYIVTCCHTCNTTVRLCVNSTASDLRTIQQLLMGTVNIVCPTCAQQ
modifications: 35S-cysteine label
B1: the binding entry is “binds” in test [1] and “no binding” in test [2].
